Laboratory results published in PubChem BioAssay AID588342 (National Center for Advancing Translational Sciences (NCATS), 2011).
Where “and” joins values, the source holds several entries; their conditions need not be identical. Identical values can stand only once. Among all 360,000 compounds or so, about 25,000 (6.9%) were called active. Inconclusive means that the source gave no clear call. Such entries were picked first, then a sample of the others. Calls follow the shape of the dose curve; as a rule, active = well fitted inhibition curve with a large enough effect; inconclusive = small, poorly fitted or top-dose-only effect; inactive = flat fitted curve, though single readings scatter. Where the call is inconclusive, the potency comes from a doubtful curve fit.

What follows are compounds tested against Luciferin 4-monooxygenase (Photinus pyralis) (UniProt P08659) (assay: qHTS profiling assay for firefly luciferase inhibitor/activator using purifed enzyme and Km concentrations of substrates (counterscreen for miR-21 project)). Settings: purified FLuc, luminescence inhibition; series mostly up to 57.5 µM.
Summary of the method: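 Purified P. pyralis luciferase, 10 nM final, with Km-level 10 uM D-luciferin and 10 uM ATP in 50 mM Tris acetate pH 7.5, 10 mM Mg acetate, 0.01% Tween-20, 0.05% BSA; 6-point qHTS titration about 60 µM downward; luminescence read.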
Also: nearly all actives have a fitted effect of over 55% in size.
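For activity change, negative = inhibition in this document: plate controls were vehicle for no effect and reference inhibitor for full effect.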
Potency is read from the fitted curve at half-maximal effect; tags tell the direction and shape of the fitted curve.

Sequence of UniProt P08659 (P08659 whole entry, looked up): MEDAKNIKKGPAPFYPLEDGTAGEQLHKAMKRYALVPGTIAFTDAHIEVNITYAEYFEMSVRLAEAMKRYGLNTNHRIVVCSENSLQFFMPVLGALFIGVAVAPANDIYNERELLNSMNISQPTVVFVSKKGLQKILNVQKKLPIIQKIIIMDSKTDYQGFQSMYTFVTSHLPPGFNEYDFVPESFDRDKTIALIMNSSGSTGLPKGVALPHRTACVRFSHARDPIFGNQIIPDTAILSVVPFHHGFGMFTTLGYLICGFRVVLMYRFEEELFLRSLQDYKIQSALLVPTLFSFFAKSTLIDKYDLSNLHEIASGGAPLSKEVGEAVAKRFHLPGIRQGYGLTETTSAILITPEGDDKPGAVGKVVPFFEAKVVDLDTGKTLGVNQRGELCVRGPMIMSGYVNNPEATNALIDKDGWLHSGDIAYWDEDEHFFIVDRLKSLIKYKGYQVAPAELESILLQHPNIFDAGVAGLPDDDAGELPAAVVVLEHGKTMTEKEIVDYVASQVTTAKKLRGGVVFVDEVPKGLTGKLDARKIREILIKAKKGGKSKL

SMILES | Potency | activity change, negative = inhibition
CC1CCN(CC#CCOc2ccc(Cl)cc2)CC1 | inconclusive: 33.8 µM [inhibitor, partial curve, poor fit] | –
O=C1NC(=S)N(c2ccccc2F)C(=O)/C1=C\c1cccs1 | inconclusive: 37.9 µM [inhibitor, single point] | –
CC(C)(C)c1csc(NC(=O)Nc2ccccc2)n1 | active: 3.38 µM | –
COc1ccc2c(c1)NP(=S)(Oc1ccccc1)N2 (configuration not stated) | active: 6.75 µM | –
CN(C)C(=O)Oc1ccc(Cl)c2ccccc12 | – | inactive: 7.62% [at 2.3 µM]
CC(C)(c1ccc(O)cc1)c1ccc(O)cc1 | inconclusive: 26.9 µM [inhibitor, partial curve, poor fit] | –
CCOC(=O)c1ccc(NC(=O)CSc2cc(=O)n(CC)c3ccccc23)cc1 | inconclusive: 13.5 µM [inhibitor, partial curve, poor fit] | –
CCN1C(=O)N(CC)C(=O)C2(Cc3ccccc3N3CCN(c4ccccc4)CC32)C1=O (configuration not stated) | inconclusive: 42.6 µM [inhibitor, partial curve, poor fit] | –
Cc1cc(C)c(NC(=O)C2CC3CCC2C3)c(C)c1 (configuration not stated) | inconclusive: 37.9 µM [inhibitor, partial curve, poor fit] | –
COc1cccc(C2=NOC(C(=O)N3CCC4(CC3)OCCO4)C2)c1 (configuration not stated) | inconclusive: 26.9 µM [inhibitor, single point] | –
Cc1sc2ncnc(N3CCOCC3)c2c1C | inconclusive: 8.49 µM [inhibitor, partial curve, poor fit] | –
Cc1ccc(Cn2ccc(NC(=O)c3cc(-c4ccco4)on3)n2)cc1 | inconclusive: 26.9 µM [inhibitor, partial curve, poor fit] | –
Cc1cc(/C=C2\C(=O)NC(=O)N(c3cccc(F)c3)C2=O)c(C)n1-c1cc(C(=O)O)cc(C(=O)O)c1 | inconclusive: 21.3 µM [inhibitor, partial curve, poor fit] | –
O=c1[nH]c(=S)[nH]c(O)c1N=Nc1ccc(S(=O)(=O)N2CCOCC2)cc1 | inactive | –
Cc1cccc(N2C(=O)NC(=O)/C(=C/c3ccc(N4CCOCC4)cc3)C2=O)c1 | inconclusive: 21.3 µM [inhibitor, single point] | –
CCc1nnc(NC(=O)CSc2ccc(-c3ccco3)nn2)s1 | active: 15.1 µM | –
O=C(O)c1cc2ccccc2oc1=O | inconclusive: 23.9 µM [inhibitor, partial curve, poor fit] | –
O=C(Nc1ccccc1F)Oc1cccc(OC(=O)Nc2ccccc2F)c1 | active: 16.9 µM | –
O=C(c1cc2cc(F)ccc2[nH]1)N1CCC2(CC1)OCCO2 | inconclusive: 37.9 µM [inhibitor, single point] | –
COc1ccc(C2CC(c3c(O)n(CCc4ccccc4)c(=O)[nH]c3=O)=NN2)cc1OC (configuration not stated) | active: 19 µM | –
Oc1cc(O)cc(/C=C/c2ccc(O)cc2O)c1 | inconclusive: 14.1 µM [inhibitor, partial curve, poor fit] | –

SMILES | Potency | activity change, negative = inhibition
C[C@]12CC[C@@H]3c4cc(O)c(O)cc4CC[C@H]3[C@@H]1CC[C@@H]2O | inconclusive: 7.57 µM [inhibitor, partial curve] | –
Cc1nc2cc(-c3cccc(F)c3)nn2c(C)c1CCC(=O)N1CCC2(CC1)OCCO2 | inconclusive: 23.9 µM [inhibitor, single point] | –
COC(=O)c1ccc(C(=O)OC)c(NC(=O)Oc2ccccc2)c1 | inconclusive: 16.9 µM [inhibitor, single point] | –
CCc1ccc2nc(N3CCC(C(=O)N4CCC5(CC4)OCCO5)CC3)sc2c1 | active: 9.53 µM | –
CCC(C)N1C(=O)/C(=C\c2cnc(N(C)C)nc2)C(=O)NC1=S (configuration not stated) | inconclusive: 37.9 µM [inhibitor, single point] | –
CCCCn1c(C)c(C(=O)OCC)c2c(CN3CCOCC3)c(O)ccc21 | inconclusive: 7.57 µM [inhibitor, partial curve, poor fit] | –
COc1ccc(CCn2c(O)c(C=NCc3cccnc3)c(=O)[nH]c2=O)cc1OC | inactive | –
CNC(=O)Oc1cccc(-c2cn3cc(OC(=O)NC)ccc3n2)c1 | active: 3.79 µM | –
CCCCc1ccc(NC(=O)c2cccn(Cc3ccc(Cl)cc3)c2=O)cc1 | inconclusive: 7.57 µM [inhibitor, partial curve] | –
Cc1c(C(c2ccc(Cl)cc2Cl)c2c(O)c3ccccc3oc2=O)c(=O)n(-c2ccccc2)n1C (configuration not stated) | inconclusive: 12 µM [inhibitor, partial curve] and inconclusive: 10.7 µM [inhibitor, partial curve] | –
Clc1ccc2sc(C3CCNCC3)nc2c1 | active: 23.9 µM | –
Cc1c(C)c2ccc(OCC(=O)N3CCC(C(=O)O)(c4ccccc4)CC3)cc2oc1=O | inconclusive: 21.3 µM [inhibitor, single point] | –
C=CCn1c(O)c(C(CC)=Nc2cccc(C(=O)O)c2)c(=O)[nH]c1=O | inconclusive: 30.1 µM [inhibitor, partial curve, poor fit] | –
O=c1c2ccccc2[nH]c(=S)n1-c1ccc2c(c1)OCCO2 | active: 10.7 µM | –
COc1ccc(CC2C(=O)NC(=O)NC2=O)c(OC)c1 | inactive | –
C=CCn1c(O)c(/C(CC)=N/NC(=S)Nc2ccccc2)c(=O)[nH]c1=O | inconclusive: 23.9 µM [inhibitor, single point] | –
Cn1cccc1/C=C1/C(=O)NC(=S)N(Cc2ccc(F)cc2)C1=O | inconclusive: 30.1 µM [inhibitor, single point] | –
Cc1oc(-c2ccc(Cl)cc2)nc1CN1CCC(C(=O)NCCCN2CCN(c3cccc(Cl)c3)CC2)CC1 | inconclusive: 19 µM [inhibitor, partial curve, poor fit] | –
CCCCC(=O)N/N=C/c1c(O)n(Cc2ccco2)c(=O)[nH]c1=O | inactive | –
O=C(Oc1c(Br)cc(Br)c2cccnc12)N1CCCCC1 | inconclusive: 30.1 µM [inhibitor, partial curve, poor fit] | –
O=C(/C=C/c1cccc(F)c1)Nc1ccc(S(=O)(=O)Nc2ncccn2)cc1 | inconclusive: 33.8 µM [inhibitor, partial curve, poor fit] | –
